# In all, about 360,000 compounds went through this assay and about 7,500 (2.1%) were called active. Inconclusive means that the source gave no clear call. Such entries were picked first, then a sample of the others. Calls come from the whole dose curve; as a rule, active = well fitted cell-killing curve with a large enough effect; inconclusive = small, poorly fitted or top-dose-only effect, or effect the other way, or another doubt; inactive = no such curve, though single readings can be large or run the other way. Potencies of inconclusive entries are left out as doubtful fits.
# Assay: qHTS for induction of synthetic lethality in tumor cells producing 2HG: qHTS for the HT-1080-IDH1KD cell line;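 for activity, negative = toxicity: 0% = DMSO wells and -100% = cell-free medium wells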
# Settings: HT-1080 IDH1 knockdown viability, ATP luminescence, 48 h; activity, negative = toxicity: at 46.1 µM (top of the series) unless noted
# Procedure, shortened: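 Cytotoxicity counter-line: IDH1KD HT-1080, 48 h, CellTiter-Glo. Curves classed by r2, magnitude and activity.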
# Potency is the fitted concentration of half-maximal effect; tags give direction and shape of the fitted curve.
Compound,Potency,"activity, negative = toxicity"
Nn1cnnc1N/N=C/c1ccc(Cl)c([N+](=O)[O-])c1,active: 20.6 µM,
Cc1cc(=O)[nH]c(N/N=C/c2sccc2C)n1,inactive,
Cc1ccc(CNCC2CCCO2)s1 (centres undefined),inactive,
CCC(C)n1c(SCC(=O)Nc2cc(C)on2)nc2ccccc2c1=O (centres undefined),"inconclusive [cytotoxic, partial curve]",
Cc1ccc(/C=C/C(=O)Nc2nc3ccccc3[nH]2)cc1,inactive,
COc1cc(OC)cc(C(=O)NC(=S)Nc2ccc(NC(=O)c3ccco3)cc2)c1,"inconclusive [cytotoxic, single point]",
CCOc1ccc2nc(NCCO)[nH]c2c1,inactive,
COc1cccc(/C=N\NC(=O)c2ccc(Cn3cc(Br)c([N+](=O)[O-])n3)o2)c1O,"inconclusive [cytotoxic, full curve]",
COc1cccc(Nc2nc(-c3cccnc3)cs2)c1,inactive,
Cc1ccc2cc(CN(CC3CCCO3)C(=S)Nc3ccccc3)c(=O)[nH]c2c1 (centres undefined),"inconclusive [cytotoxic, partial curve, poor fit]",
CCOC(=O)c1c(NC(=O)Cc2ccccc2)sc2c1CCN(C)C2,inactive,
CCCCCCCCCCS(=O)(=O)N/N=C/c1ccc([N+](=O)[O-])cc1,"inconclusive [cytotoxic, single point]",
O=C(NC1CCCCC1)C(c1ccc(C(F)(F)F)cc1)n1c(=O)c(-c2cc3ccccc3[nH]2)nc2ccccc21 (centres undefined),"inconclusive [cytotoxic, single point]",
COc1cc(Cl)ccc1OC1(C)CCN(Cc2cccn2-c2nccs2)C1 (centres undefined),"inconclusive [cytotoxic, partial curve]",
O=C(NCc1ccccc1)C1Cc2c(-c3ccc4c(c3)OCO4)ccnc2O1 (centres undefined),active: 0.411 µM,
C=CCn1c(SCC(=O)Nc2cc(C)on2)nc2c([nH]c3ccccc32)c1=O,"inconclusive [cytotoxic, single point]",
O=S(=O)(c1ccc(Cl)cc1)c1cnc2ccccc2n1,"inconclusive [cytotoxic, single point]",
CN(CC(=O)Nc1ccccc1C(F)(F)F)C(=O)CN1C(=O)C2CCCCC2C1=O (centres undefined),inactive,
Nc1nnc(C2CCCC2)s1,,inconclusive: 31.9%
Cc1cccc(C(=O)NN2C(=O)C3C(c4ccccc4)C=CC(c4ccccc4)C3C2=O)c1 (centres undefined),inactive,
O=C(Nc1cccc([N+](=O)[O-])c1)Nc1ccc2c(c1)CCC2,"inconclusive [cytotoxic, single point]",
COc1ccc(Cl)cc1C(=O)NC(=S)Nc1cc(-c2nc3ccccc3[nH]2)ccc1C,"inconclusive [cytotoxic, partial curve]",
CCCCCCCCN1C(=O)[C@H](CC(=O)N2CCCCC2)C[C@@]2(C(=O)OC)CCCCC=C12,"inconclusive [cytotoxic, single point]",
COc1ccc(-c2cc(C#N)nc(Cl)n2)cc1,active: 9.2 µM,
O=C1Nc2ccccc2O/C1=C\c1c(F)cccc1Cl,"inconclusive [cytotoxic, single point]",

Compound,Potency,"activity, negative = toxicity"
COC(=O)c1[nH]c2cc(OC)ccc2c1NC(=O)CCN1CCN(c2cccc(C)c2C)CC1,"inconclusive [cytotoxic, single point]",
C=CCn1c(SCC(N)=O)nc2scc(-c3ccc(C)o3)c2c1=O,inactive,
Cc1ccc(C(=O)Nc2ccc(C(=O)/C=C/c3cccs3)cc2)cc1,"inconclusive [cytotoxic, single point]",
COc1ccc(Cc2c(-c3ccccc3)nc3ccc(Cl)cn23)c(C)c1,inactive,
Cc1cc(Cl)ccc1OC(C)C(=O)N1CCCN(C(=O)C(C)Oc2ccc(Cl)cc2C)CC1 (centres undefined),active: 20.6 µM,
O=C(NCc1ccc2c(c1)OCO2)C1CC(=O)N(C2CCCCCC2)C1 (centres undefined),"inconclusive [rising, single point]",
COc1ccccc1C(CNC(=O)c1ccc(-c2ccccc2Cl)o1)N1CCCC1 (centres undefined),active: 20.6 µM,
Cc1ccc(CNc2ncnc3c2cnn3-c2ccccc2)cc1,"inconclusive [cytotoxic, single point]",
Cc1ccc(NC(=S)N=Nc2c(O)[nH]c3ccccc23)cc1,"inconclusive [cytotoxic, partial curve]",
CC(C)(C)c1ccc(NC(=O)N2CCN(c3ccc([N+](=O)[O-])cn3)CC2)cc1,active: 23.1 µM,
Cc1ccccc1S(=O)(=O)Cc1ccc(C(=O)NCCN(C)Cc2ccccc2)o1,inactive,
O=C(NCC1CC1(Cl)Cl)Nc1ccc(Cl)c(Cl)c1 (centres undefined),active: 29.1 µM,
N/C(Cc1ccccc1)=N\OC(=O)c1cccc2ccccc12,active: 20.6 µM,
COc1ccccc1CNC(=O)CN1C(=O)NC2(CCCc3sccc32)C1=O (centres undefined),inactive,
Cc1ccc(NC(=O)c2ncn(CCCNCCCc3ccccc3)n2)cc1C,"inconclusive [cytotoxic, single point]",
CCn1cc(CN2CCC(C(=O)Nc3cccc(-c4cccc(Cl)c4)c3)CC2)cn1,active: 18.4 µM,
Cc1cc(-c2nnc3n2N=C(c2ccc(-c4ccccc4)cc2)CS3)n[nH]1,"inconclusive [cytotoxic, single point]",
CCOC(=O)C1=C(CSc2nc3c(cc2C#N)CN(C)CC3)OC(N)=C(C#N)C1c1ccc(Cl)cc1 (centres undefined),inactive,
CC(C)C(=O)Nc1ccc(C(=O)NNC(=O)C(c2ccccc2)c2ccccc2)cc1,"inconclusive [cytotoxic, single point]",
COc1ccc(C(=O)C2CCCN(C(=O)/C=C/c3ccccn3)C2)c(C)c1 (centres undefined),inactive,
CC1(C)O[C@@H]2C[C@H]3[C@@H]4C[C@H](F)C5=CC(=O)C=C[C@]5(C)[C@H]4[C@@H](O)C[C@]3(C)[C@]2(C(=O)CO)O1,"inconclusive [rising, partial curve, poor fit]",
CCOc1ccc(-n2nnnc2SCC(=O)NNC(=O)c2ccco2)cc1,inactive,
C=CCCC(=O)Nc1nc(C)c(-c2csc(Nc3ccc(Cl)cc3)n2)s1,"inconclusive [cytotoxic, single point]",
Cc1ccc(CNC(=O)CSc2c3c(nc4ccc(Cl)cc24)CCCC3)o1,"inconclusive [cytotoxic, single point]",
COc1ccc2cc(/C=C3\SC(=S)NC3=O)c(N3CCOCC3)nc2c1,"inconclusive [cytotoxic, single point]",

Compound,Potency,"activity, negative = toxicity"
Cc1ccc(S(=O)(=O)Nc2cccc(-c3ccc4nncn4n3)c2)cc1,active: 3.26 µM,
CC(=O)Nc1ccc(S(=O)(=O)N2CCCc3ccccc32)cc1,active: 7.08 µM,
COc1ccc(/C=C/C(=O)c2ccc3c(c2)OCO3)c(OC)c1,"inconclusive [cytotoxic, single point]",
O=C1NC(Cc2ccc(O)cc2)c2nc3ccc(Cl)cc3c(=O)n2-c2cc3ccccc3cc21 (centres undefined),"inconclusive [cytotoxic, single point]",
COc1cc(C(O)c2nc(-c3cccc(C(C)C)c3)cs2)ccc1F (centres undefined),"inconclusive [cytotoxic, single point]",
COc1ccc(/C=C/C(=O)c2ccc3c4c(cccc24)CC3)cc1,"inconclusive [cytotoxic, single point]",
NS(=O)(=O)c1cccc(NC(=O)c2cc(=O)c3ccccc3o2)c1,inactive,
C=CCc1ccc(OCCOc2cccc3ccc(C)nc23)c(OC)c1,"inconclusive [cytotoxic, single point]",
CCC(C)OC(=O)C1=C(C)NC(=O)CC1c1ccccc1OC (centres undefined),inactive,
CSc1nc(-c2ccc(C)cc2)nc(N)c1C#N,"inconclusive [cytotoxic, partial curve, poor fit]",
CCc1nc(N2CCCCC2C)c2oc3ccccc3c2n1 (centres undefined),"inconclusive [cytotoxic, single point]",
CCOC(=O)C1(C)CCCN(C(=O)c2cccc(OC(F)(F)F)c2)C1 (centres undefined),inactive,
N#CC1=C(SCC(=O)c2ccccc2)NC2=C(C(=O)CCC2)C1c1ccco1 (centres undefined),active: 4.61 µM,
Cc1[nH]c2ccc(C(=O)N3CCCC3)cc2c1C,inactive,
COc1nc(=O)n(C2C=CC(=O)O2)cc1F (centres undefined),"inconclusive [cytotoxic, single point]",
Cc1cc(Nc2ccc(F)c(F)c2)nc(-c2ccccc2O)n1,"inconclusive [cytotoxic, single point]",
O=C(O)CCn1cc(/C=C/C(=O)c2ccc(Cl)cc2)c(-c2ccc(Br)cc2)n1,"inconclusive [cytotoxic, single point]",
S=C(NCCc1ccccc1)NCc1cccc(Cl)c1,inactive,
COc1cc2c(cc1OC)C(COc1ccc([N+](=O)[O-])cc1)N(C(C)=O)CC2 (centres undefined),inactive,
CCN(CC)S(=O)(=O)c1ccc(C)c(NC(=O)COC(=O)C=C(C)C)c1,"inconclusive [cytotoxic, single point]",
N#Cc1c(N)nc2c(c1-c1ccc3c(c1)OCO3)CCc1ccccc1-2,active: 16.4 µM,
Cc1cc(/N=C/C=C2/N(C)c3ccccc3C2(C)C)n(CCC#N)n1,"inconclusive [cytotoxic, single point]",
CCOC(=O)C(CC)(CC)C(=O)/C=C/c1cccc(Br)c1,"inconclusive [cytotoxic, single point]",
COc1ccc(N2CCN(C(=O)c3ccc(Cl)c(S(=O)(=O)N4CCOCC4)c3)CC2)cc1,inactive,

# — PubChem BioAssay AID686971 (National Center for Advancing Translational Sciences (NCATS), 2013)
